# From PubChem BioAssay AID485281 (National Center for Advancing Translational Sciences (NCATS), 2010)
# The whole screen tested about 350,000 compounds, of which about 260 (0.074%) were called active. Inconclusive results, whose numbers are uncertain, are shown with a selection of clear calls. Calls come from the whole dose curve; as a rule, active = well fitted inhibition curve with a large enough effect; inconclusive = small, poorly fitted or top-dose-only effect; inactive = no such curve, though single readings can be large or run the other way. A potency beside an inconclusive call is a rough fit, not a confirmed value.
# Biological target: Ferritin light chain (Equus caballus) (UniProt P02791)
# Sequence of UniProt P02791 (P02791 whole entry, looked up): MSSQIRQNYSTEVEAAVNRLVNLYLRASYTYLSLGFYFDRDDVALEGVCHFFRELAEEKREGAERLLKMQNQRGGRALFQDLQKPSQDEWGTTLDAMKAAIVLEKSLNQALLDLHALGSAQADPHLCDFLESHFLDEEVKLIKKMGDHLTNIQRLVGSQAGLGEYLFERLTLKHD
# Assay: qHTS Assay for Identification of Novel General Anesthetics; note: nearly all actives have a fitted effect of over 20% in size
# Details: apoferritin/1-aminoanthracene competitive binding, fluorescence; activity change, negative = displacement: at 77.5 µM (top of the series)
# Method in brief: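 Apoferritin-based anesthetic binding model; compound displacement of fluorescent 1-AMA measured as endpoint fluorescence after 10 minutes at room temperature, scaled to free-ligand and complex controls.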
# % is set by controls: 0 for no effect and ±100 for the full control effect; potency is the fitted concentration of half-maximal effect; tags give direction and shape of the fitted curve.
Compound,Potency,"activity change, negative = displacement"
O=[N+]([O-])c1ccc(-c2nc(-c3cccs3)c(-c3cccs3)[nH]2)cc1,"inconclusive: 15.8 µM [inhibitor, partial curve]",–
O=C(Cn1cnc2c(nnn2Cc2ccc(F)cc2)c1=O)N1CCN(c2ccccc2)CC1,"inconclusive: 28.2 µM [inhibitor, partial curve]",–
Cc1ccccc1CN1CCc2c(OCC(=O)N3CCCCC3)cccc2C1=O,"inconclusive: 25.1 µM [inhibitor, partial curve]",–
CCOc1cc(-c2ccc3c(c2)OCO3)cc(=O)c2c(C)oc(C)c12,"inconclusive: 17.8 µM [inhibitor, partial curve]",–
COC(=O)c1ccccc1N(C)S(=O)(=O)c1cc2c3c(c1)CC(=O)N3CCC2,"inconclusive: 14.1 µM [inhibitor, partial curve]",–
Cc1csc(OCC(=O)Nc2ccc(C)c(C)c2)n1,"inconclusive: 10 µM [inhibitor, partial curve]",–
CC(C)Sc1nc2ccccc2c(=O)[nH]1,"inconclusive: 25.1 µM [inhibitor, partial curve]",–
Cc1c(C(=O)OC(C)C(C)C[N+](C)(C)C)oc2ccccc12 (stereo unspecified),–,inactive: -5.85%
COc1ccc(/C(C)=N/OCC(=O)N2CC3(C)CC2CC(C)(C)C3)cc1 (stereo unspecified),"inconclusive: 50.1 µM [inhibitor, single point]",–
Cc1ccc(S(=O)(=O)Nc2cccc(-c3ccc(N4CCCC4)nn3)c2)c(C)c1,"inconclusive: 5.62 µM [inhibitor, partial curve]",–
O=C(OCC(=O)N1CCc2ccccc21)c1ccccn1,"inconclusive: 44.7 µM [inhibitor, single point]",–
COCc1c(N)c(C)nc(Cl)c1C#N,"inconclusive: 7.94 µM [inhibitor, partial curve]",–
CCN(CC)C(=O)CSc1nnc(SCc2ccc(Cl)cc2)s1,"inconclusive: 31.6 µM [inhibitor, partial curve]",–
CCN1C(=O)S/C(=C/c2cn(C)c3ccccc23)C1=O,–,inactive: -2.74%
O=C(/C=C/c1ccco1)N1CCN(c2ncccn2)CC1,–,inactive: 0.103%
CCCc1ccc(-c2cc(N)n[nH]2)cc1,"inconclusive: 50.1 µM [inhibitor, single point]",–
COc1cccc(NC(=O)C2CCN(C(=O)[C@@H]3Cc4ccccc4CN3C(=O)OC(C)(C)C)CC2)c1,"inconclusive: 39.8 µM [inhibitor, single point]",–
Cc1cccc(Nc2ccc([N+](=O)[O-])cn2)c1,"inconclusive: 15.8 µM [inhibitor, partial curve]",–
COC(=O)C1=C(CCc2ccccc2)NC(=O)NC1c1ccc(Br)cc1 (stereo unspecified),"inconclusive: 15.8 µM [inhibitor, partial curve]",–
Cc1cc(NC(=O)Cn2cc([N+](=O)[O-])cn2)n(Cc2ccc(F)cc2)n1,"inconclusive: 28.2 µM [inhibitor, single point]",–
C=C(Cl)COc1ccc2c(CCC)cc(=O)oc2c1,"inconclusive: 35.5 µM [inhibitor, partial curve]",–
COc1cccc(C(=O)CSc2nnc(-c3cc(OC)c(OC)c(OC)c3)o2)c1,"inconclusive: 31.6 µM [inhibitor, partial curve]",–
CCn1cc(C(=O)N2CCN(c3cccc(C)c3)C(C)C2)c(=O)c2cc(S(=O)(=O)N3CCOCC3)ccc21 (stereo unspecified),"inconclusive: 39.8 µM [inhibitor, partial curve]",–
COc1ccc2cc3cc(C(=O)NCCN4CCN(c5ccccc5F)CC4)oc3nc2c1,–,inactive: -7.61%

Compound,Potency,"activity change, negative = displacement"
c1ccc(Nc2cccc(Nc3ccccc3)c2)cc1,"inconclusive: 28.2 µM [inhibitor, partial curve]",–
NOCc1ccccc1,–,inactive: -6.61%
CCOCCCNC(=S)N1CCC(C(=O)c2ccc3c(c2)OCCO3)CC1,–,inactive: -11.9%
O=C1NC(=S)S/C1=C\c1ccc(SCc2ccccc2)o1,–,inactive: -16.4%
O=C(N/N=C/C=C/c1ccccc1)NC1CCCCC1,"inconclusive: 28.2 µM [inhibitor, partial curve]",–
Cc1ccc(Cn2cc(CCC(=O)NCC(C)c3ccccc3)c3ccccc32)cc1 (stereo unspecified),–,inactive: 61.5%
O=C1NNC(c2ccccc2)=N/C1=C\c1ccccc1,–,inactive: -5.7%
C=CCNc1sc(C(=O)c2ccccc2)c(N)c1-c1nc2ccccc2s1,"inconclusive: 15.8 µM [inhibitor, partial curve]",–
COc1ccccc1CCNC(=O)C(=O)NCC(c1cccnc1)N1CCN(c2ccccc2)CC1 (stereo unspecified),–,inactive: 0.605%
COCCn1c(C)cc(O)c(C(c2ccccc2F)N2CCN(c3ccccc3)CC2)c1=O (stereo unspecified),–,inactive: -4.51%
C/C=C\C=C/C(=O)Nc1cccc(C2=NOC3(C2)C[C@@H](C(N)=O)N(C(=O)c2ccc(Cl)cc2)C3)c1 (stereo partly specified),"inconclusive: 22.4 µM [inhibitor, partial curve]",–
O=C(Nc1cccc(Cl)c1)c1ccc2c(c1)CCN2S(=O)(=O)c1ccccc1,–,inactive: -9.83%
CCCCN(CC)C(=O)CSc1c2c(nc3ccc(Cl)cc13)CCCC2,"inconclusive: 35.5 µM [inhibitor, partial curve]",–
Oc1ccccc1CNc1cccc2cccnc12,"inconclusive: 28.2 µM [inhibitor, partial curve]",–
CCOc1ccc(NC(=O)c2sc3nc4c(c(-c5ccc(OC)cc5)c3c2N)C(=O)CC(C)(C)C4)cc1,–,inactive: 3.48%
Oc1c(C=NCc2ccc(F)cc2)[nH]c2ccc(Br)c(Cl)c12,"inconclusive: 12.6 µM [inhibitor, partial curve]",–
CCc1ccc(/C(C)=N/NC(=O)CNC(=O)/C=C/c2ccccc2OC)cc1,"inconclusive: 50.1 µM [inhibitor, single point]",–
COc1ccccc1Nc1nc(NCCCN(C)C)nc(N)c1[N+](=O)[O-],–,inactive: -0.135%
COC(=O)C1CCCCN1C(=O)c1cc(COc2cccc3cnccc23)on1 (stereo unspecified),"inconclusive: 14.1 µM [inhibitor, partial curve]",–
COc1ccc(C(NC(=O)CNC(C)=O)C(=O)Nc2ccc(C(C)C)cc2)cc1 (stereo unspecified),–,inactive: -5.51%
O=C1c2ccccc2C(=O)N1CSc1nnc(Nc2ccccc2F)s1,–,inactive: -12.4%
O=[N+]([O-])c1cccnc1NCc1cccs1,"inconclusive: 31.6 µM [inhibitor, partial curve]",–
CCC(C)c1cc([N+](=O)[O-])cc([N+](=O)[O-])c1OC(=O)OC(C)C (stereo unspecified),–,inactive: -0.62%
O=C(O)C1Nc2c(cccc2C(F)(F)F)C2C=CCC12 (stereo unspecified),–,inactive: -13.8%

Compound,Potency,"activity change, negative = displacement"
NS(=O)(=O)c1ccc(CNC(=O)CC23CC4CC(CC(C4)C2)C3)cc1,"inconclusive: 44.7 µM [inhibitor, single point]",–
COc1cc(C)ccc1OCc1cc(C(=O)N2CCCCCCC2)no1,"inconclusive: 25.1 µM [inhibitor, partial curve]",–
C=CCn1c(=O)[nH]c2nc3cc(N=CN(C)C)c(C)cc3nc2c1=O,–,inactive: 69.8%
Cc1cccc(NC(=O)CCc2ccccc2)c1,"inconclusive: 28.2 µM [inhibitor, partial curve]",–
COc1ccc(COc2ccccc2C(N)=O)cc1F,–,inactive: -8.93%
CC(C)c1ccc2nc(N)sc2c1,"inconclusive: 35.5 µM [inhibitor, partial curve]",–
COC(=O)c1c(NC(=O)CN2CCN(c3ccccc3OC)CC2)c2c(C)cccc2n1C,–,inactive: -6.75%
CCn1nnnc1SCC(=O)c1ccc(C)cc1C,"inconclusive: 20 µM [inhibitor, partial curve]",–
Cc1ccc(C)c(Nc2nc(N)c3ccccc3n2)c1,"inconclusive: 39.8 µM [inhibitor, single point]",–
N#CC1=C(N)C2=CCCC[C@H]2[C@H](c2ccc(Br)cc2)C1(C#N)C#N,–,inactive: -1.25%
O=C(COC(=O)CCCOc1ccc(Cl)cc1Cl)NCc1ccccc1,"inconclusive: 28.2 µM [inhibitor, partial curve]",–
Clc1cccc(CSc2nnc([C@@H]3CCCN3)o2)c1,"inconclusive: 28.2 µM [inhibitor, partial curve]",–
Cc1cnc(NC(=O)[C@H](C)N2C(=O)C3CCCCC3C2=O)s1 (stereo partly specified),–,inactive: -2.66%
Cc1ccc(CNC(=O)CCn2cnc3ccccc3c2=O)cc1,"inconclusive: 22.4 µM [inhibitor, single point]",–
O=C(CSc1ccccc1)N1CCCC(Nc2ccccc2)C1 (stereo unspecified),"inconclusive: 56.2 µM [inhibitor, single point]",–
Cc1ccc(C(=O)NCC(=O)N/N=C/c2cccs2)cc1[N+](=O)[O-],"inconclusive: 28.2 µM [inhibitor, partial curve]",–
COc1ccc(CCN2C(=S)N(C)C(=O)C2CC(=O)Nc2ccc(OC)cc2)cc1 (stereo unspecified),"inconclusive: 20 µM [inhibitor, partial curve]",–
CCc1ccc2[nH]c(=O)c(CN(CCN3CCCC3)C(=O)NC3CCCCC3)cc2c1,"inconclusive: 14.1 µM [inhibitor, partial curve]",–
Cc1ccc(NC(=O)C2CCCCC2C(=O)O)cc1Cl (stereo unspecified),"inconclusive: 28.2 µM [inhibitor, partial curve]",–
COc1cc(C)cc2oc(=O)c(CC(=O)NCCc3ccc(Cl)cc3)c(C)c12,"inconclusive: 7.08 µM [inhibitor, full curve, poor fit]",–
CC1CCCN(C(=O)CSc2cnc3ccccc3n2)C1 (stereo unspecified),"inconclusive: 35.5 µM [inhibitor, partial curve]",–
COc1ccc(C(=O)Nc2cccc(C(=O)NCc3ccccc3)c2)cc1,"inconclusive: 56.2 µM [inhibitor, single point]",–
Cc1oc2ccc(O)c(CN3CCOCC3)c2c1C(=O)c1ccc(Cl)cc1,"inconclusive: 15.8 µM [inhibitor, partial curve]",–
